Measurements taken from the supplement of paper PMC10369915.
The list shows a part of the results. Rule as the data show it: active = 3.2 or more and inactive = the rest. The signal is at background level for most entries.

What was measured:
Test in all cases: enrichment score (SH2-bound / input frequency) (ratio); bacterial display of known human phosphotyrosine sites (pTyr-Var adds point mutants) read by sequencing; higher = stronger binding; tyrosines were phosphorylated by kinases first
Conditions in all cases: peptide library: Human pTyr
SHP2 C-SH2 domain E139D = target: SHP2 C-SH2 domain E139D
[1] = target: SHP2 C-SH2 domain wild-type
SHP2 N-SH2 domain L43F = target: SHP2 N-SH2 domain L43F
SHP2 N-SH2 domain T42A = target: SHP2 N-SH2 domain T42A
SHP2 N-SH2 domain T52S = target: SHP2 N-SH2 domain T52S
[2] = target: SHP2 N-SH2 domain wild-type

Measured: enrichment score
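Also: displayed peptides selected on beads carrying the immobilized SH2 domain, with library peptides lacking any tyrosine serving as negative controls.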

SDIQRSLYDRPASYK [PGFRA_HUMAN_762]
inactive: SHP2 C-SH2 domain E139D 0.819 | [1] 0.781 | SHP2 N-SH2 domain L43F 0.851 | SHP2 N-SH2 domain T42A 0.717 | SHP2 N-SH2 domain T52S 0.833 | [2] 0.784

DIMHDSNYVSKGSTF [PGFRA_HUMAN_849]
inactive: SHP2 C-SH2 domain E139D 0.711 | [1] 0.708 | SHP2 N-SH2 domain L43F 0.636 | SHP2 N-SH2 domain T42A 0.564 | SHP2 N-SH2 domain T52S 0.652 | [2] 0.551

VSSDGHEYIYVDPMQ [PGFRB_HUMAN_579]
inactive: SHP2 C-SH2 domain E139D 0.902 | [1] 0.789 | SHP2 N-SH2 domain L43F 0.64 | SHP2 N-SH2 domain T42A 0.855 | SHP2 N-SH2 domain T52S 0.696 | [2] 0.616

SDGHEAIYVDPMQLP [PGFRB_HUMAN_581_YA]
inactive: SHP2 C-SH2 domain E139D 0.616 | [1] 0.381 | SHP2 N-SH2 domain L43F 0.556 | SHP2 N-SH2 domain T42A 0.507 | SHP2 N-SH2 domain T52S 0.627 | [2] 0.965

TGESDGGYMDMSKDE [PGFRB_HUMAN_740]
inactive: SHP2 C-SH2 domain E139D 0.744 | [1] 0.669 | SHP2 N-SH2 domain L43F 0.824 | SHP2 N-SH2 domain T42A 0.633 | SHP2 N-SH2 domain T52S 0.922 | [2] 0.632

SKDESVDYVPMLDMK [PGFRB_HUMAN_751]
inactive: SHP2 C-SH2 domain E139D 0.694 | [1] 0.641 | SHP2 N-SH2 domain L43F 0.747 | SHP2 N-SH2 domain T42A 0.819 | SHP2 N-SH2 domain T52S 0.68 | [2] 0.918

ADIESSNYMAPADNA [PGFRB_HUMAN_771_YA]
inactive: SHP2 C-SH2 domain E139D 0.781 | [1] 0.744 | SHP2 N-SH2 domain L43F 0.709 | SHP2 N-SH2 domain T42A 0.534 | SHP2 N-SH2 domain T52S 0.927 | [2] 0.959

SSNAMAPYDNAVPSA [PGFRB_HUMAN_775_YA]
inactive: SHP2 C-SH2 domain E139D 0.67 | [1] 0.524 | SHP2 N-SH2 domain L43F 0.547 | SHP2 N-SH2 domain T42A 0.64 | SHP2 N-SH2 domain T52S 0.529 | [2] 0.485

EELEEPVYEEPVYEE [ARAP3_HUMAN_1403]
inactive: SHP2 C-SH2 domain E139D 1.32 | [1] 1.24 | SHP2 N-SH2 domain L43F 1.23 | SHP2 N-SH2 domain T42A 1.28 | SHP2 N-SH2 domain T52S 1.73 | [2] 1.6

AHASDEIYEIMQKCW [PGFRB_HUMAN_934]
inactive: SHP2 C-SH2 domain E139D 1.46 | [1] 1.4 | SHP2 N-SH2 domain L43F 1.41 | SHP2 N-SH2 domain T42A 1.1 | SHP2 N-SH2 domain T52S 1.39 | [2] 1.67

GEGYKKKYQQVDEEF [PGFRB_HUMAN_970]
inactive: SHP2 C-SH2 domain E139D 1.45 | [1] 1.28 | SHP2 N-SH2 domain L43F 1.22 | SHP2 N-SH2 domain T42A 1.23 | SHP2 N-SH2 domain T52S 0.808 | [2] 1.36

EELEEPVYEEPVAEE [ARAP3_HUMAN_1403_YA]
inactive: SHP2 C-SH2 domain E139D 1.27 | [1] 1.11 | SHP2 N-SH2 domain L43F 1.07 | SHP2 N-SH2 domain T42A 1.09 | SHP2 N-SH2 domain T52S 1.2 | [2] 1.45

ELNDMDDYDSEDDND [PHF14_HUMAN_206]
inactive: SHP2 C-SH2 domain E139D 0.808 | [1] 0.992 | SHP2 N-SH2 domain L43F 1.01 | SHP2 N-SH2 domain T42A 0.763 | SHP2 N-SH2 domain T52S 0.973 | [2] 1

NRYAGEVYGMIRFSG [PI4KA_HUMAN_1154]
inactive: SHP2 C-SH2 domain E139D 1.85 | [1] 1.57 | SHP2 N-SH2 domain L43F 1.51 | SHP2 N-SH2 domain T42A 1.76 | SHP2 N-SH2 domain T52S 1.91 | [2] 2

NRAAGEVYGMIRFSG [PI4KA_HUMAN_1154_YA]
inactive: SHP2 C-SH2 domain E139D 1.57 | [1] 1.26 | SHP2 N-SH2 domain L43F 1.29 | SHP2 N-SH2 domain T42A 1.24 | SHP2 N-SH2 domain T52S 1.31 | [2] 1.48

DAPATDIYFPTDERS [PI51C_HUMAN_639]
inactive: SHP2 C-SH2 domain E139D 0.706 | [1] 0.642 | SHP2 N-SH2 domain L43F 0.647 | SHP2 N-SH2 domain T42A 0.6 | SHP2 N-SH2 domain T52S 0.728 | [2] 0.721

TDERSWVYSPLHASA [PI51C_HUMAN_649_YA]
inactive: SHP2 C-SH2 domain E139D 0.593 | [1] 0.633 | SHP2 N-SH2 domain L43F 0.701 | SHP2 N-SH2 domain T42A 0.637 | SHP2 N-SH2 domain T52S 0.772 | [2] 0.67

STKMHGDYTLTLRKG [PIK3R1_HUMAN_368]
inactive: SHP2 C-SH2 domain E139D 0.906 | [1] 0.901 | SHP2 N-SH2 domain L43F 0.957 | SHP2 N-SH2 domain T42A 1.04 | SHP2 N-SH2 domain T52S 1.18 | [2] 1.01

FGIKPDDYLYSICSE [PIP5K1B_HUMAN_105]
inactive: SHP2 C-SH2 domain E139D 1.37 | [1] 1.22 | SHP2 N-SH2 domain L43F 1.12 | SHP2 N-SH2 domain T42A 1.11 | SHP2 N-SH2 domain T52S 1.38 | [2] 1.16

FGIKPDDYLASICSE [PIP5K1B_HUMAN_105_YA]
inactive: SHP2 C-SH2 domain E139D 1.15 | [1] 0.894 | SHP2 N-SH2 domain L43F 1.07 | SHP2 N-SH2 domain T42A 0.882 | SHP2 N-SH2 domain T52S 1.28 | [2] 1.25

GQQQYDIYERMVPPR [PKP4_HUMAN_372]
inactive: SHP2 C-SH2 domain E139D 0.642 | [1] 0.55 | SHP2 N-SH2 domain L43F 0.576 | SHP2 N-SH2 domain T42A 0.6 | SHP2 N-SH2 domain T52S 0.679 | [2] 0.582

GQQQADIYERMVPPR [PKP4_HUMAN_372_YA]
inactive: SHP2 C-SH2 domain E139D 0.601 | [1] 0.557 | SHP2 N-SH2 domain L43F 0.94 | SHP2 N-SH2 domain T42A 0.556 | SHP2 N-SH2 domain T52S 0.825 | [2] 0.612

DLHITPIYEGRTYYS [PKP4_HUMAN_415]
inactive: SHP2 C-SH2 domain E139D 0.913 | [1] 1.63 | SHP2 N-SH2 domain L43F 0.732 | SHP2 N-SH2 domain T42A 0.637 | SHP2 N-SH2 domain T52S 0.932 | [2] 0.748

KGKKFLQYNRLQLSR [PLCG1_HUMAN_1003]
inactive: SHP2 C-SH2 domain E139D 1.88 | [1] 1.74 | SHP2 N-SH2 domain L43F 1.95 | SHP2 N-SH2 domain T42A 1.64 | SHP2 N-SH2 domain T52S 1.83 | [2] 1.98

IGTAEPDYGALYEGR [PLCG1_HUMAN_771]
inactive: SHP2 C-SH2 domain E139D 0.519 | [1] 0.35 | SHP2 N-SH2 domain L43F 0.378 | SHP2 N-SH2 domain T42A 0.499 | SHP2 N-SH2 domain T52S 0.459 | [2] 0.411

IGTAEPDYGALAEGR [PLCG1_HUMAN_771_YA]
inactive: SHP2 C-SH2 domain E139D 0.652 | [1] 0.44 | SHP2 N-SH2 domain L43F 0.606 | SHP2 N-SH2 domain T42A 0.683 | SHP2 N-SH2 domain T52S 0.481 | [2] 0.506

EGRNPGFYVEANPMP [PLCG1_HUMAN_783]
inactive: SHP2 C-SH2 domain E139D 0.523 | [1] 0.897 | SHP2 N-SH2 domain L43F 0.716 | SHP2 N-SH2 domain T42A 0.616 | SHP2 N-SH2 domain T52S 0.735 | [2] 0.711

ERDINSLYDVSRMYV [PLCG2_HUMAN_753]
inactive: SHP2 C-SH2 domain E139D 0.77 | [1] 0.612 | SHP2 N-SH2 domain L43F 0.707 | SHP2 N-SH2 domain T42A 0.594 | SHP2 N-SH2 domain T52S 0.711 | [2] 0.695

ERDINSLYDVSRMAV [PLCG2_HUMAN_753_YA]
inactive: SHP2 C-SH2 domain E139D 0.673 | [1] 0.612 | SHP2 N-SH2 domain L43F 0.597 | SHP2 N-SH2 domain T42A 0.485 | SHP2 N-SH2 domain T52S 0.597 | [2] 0.71

KGYSDEIYVVPDDSQ [ARHGAP5_HUMAN_1109]
inactive: SHP2 C-SH2 domain E139D 0.926 | [1] 0.967 | SHP2 N-SH2 domain L43F 1.02 | SHP2 N-SH2 domain T42A 0.899 | SHP2 N-SH2 domain T52S 0.9 | [2] 1.02

SVGSSSSYPISPAVS [PLEC_HUMAN_4393]
inactive: SHP2 C-SH2 domain E139D 0.584 | [1] 0.512 | SHP2 N-SH2 domain L43F 0.569 | SHP2 N-SH2 domain T42A 0.595 | SHP2 N-SH2 domain T52S 0.566 | [2] 0.725

TKGYYSPYSVSGSGS [PLEC_HUMAN_4615]
inactive: SHP2 C-SH2 domain E139D 1.36 | [1] 2.84 | SHP2 N-SH2 domain L43F 0.849 | SHP2 N-SH2 domain T42A 0.908 | SHP2 N-SH2 domain T52S 0.844 | [2] 0.82

TKGAASPYSVSGSGS [PLEC_HUMAN_4615_YA]
inactive: SHP2 C-SH2 domain E139D 0.379 | [1] 0.433 | SHP2 N-SH2 domain L43F 0.506 | SHP2 N-SH2 domain T42A 0.779 | SHP2 N-SH2 domain T52S 0.472 | [2] 0.665

TLCGTPNYISPEIAT [PLK4_HUMAN_177]
inactive: SHP2 C-SH2 domain E139D 1 | [1] 0.767 | SHP2 N-SH2 domain L43F 1.06 | SHP2 N-SH2 domain T42A 0.959 | SHP2 N-SH2 domain T52S 0.962 | [2] 1.02

VRYQPGKYPMPNQSV [PLS4_HUMAN_88]
inactive: SHP2 C-SH2 domain E139D 2.2 | [1] 2.49 | SHP2 N-SH2 domain L43F 2.07 | SHP2 N-SH2 domain T42A 2.21 | SHP2 N-SH2 domain T52S 2.7
active: [2] 3.31

VDTDGNGYISFNELN [PLSL_HUMAN_28]
inactive: SHP2 C-SH2 domain E139D 0.717 | [1] 0.671 | SHP2 N-SH2 domain L43F 0.672 | SHP2 N-SH2 domain T42A 0.702 | SHP2 N-SH2 domain T52S 0.608 | [2] 0.795
